PMC12136788
The other results are listed elsewhere or left out.

B1: chr8:97851540:97851652:+|3pUTR|ENSG00000104341|msi1_unk|FALSE|overlapping (ssRNA)
RNA: GGGAGUUCUACAGUCCGACGAUCCACUUUUGCCAUGAGCCUCUCUGAGCUUGUUUGUUGCUGAAAUGCUACUUUUUAAAAUUUAGAUGUUAGAUUGAAAACUGUAGUUUUCAACAUAUGCUUUGCUGGAACACUGUGAUAGAUCAACAGAGGAUUGAGCAUCA
B2: chrX:152133309:152134510:-|three_prime_utr|ENSG00000124260|control|control|control (ssRNA)
RNA: GGGAGUUCUACAGUCCGACGAUCUGAUUUUACUCAUAUGUGGAAUCUAAAAAAAAAAAAAAAAAAAGUUGGUAUCAUGGAAGUAGAGAGUAGAGCAGUAGUUACAUUACAAUUAAAUAGGAGGAAUAAGUUCUAGUGUUCUAUCAACAGAGGAUUGAGCAUCA
B3: chr14:102729990:102730091:+|3pUTR|ENSG00000089902|msi1|FALSE|unique (ssRNA)
RNA: GGGAGUUCUACAGUCCGACGAUCUGCGAUGCUCUUUCUGCCAGUCCCUGAAUCUCUGCAGCUUCUCUUACCUGUCUUACCUGUAGUAAAGCACAAUUGCAGUGGCGUCGCAUUCAGAAGAAGGGAAGGUCAGCAGAGGCUAUGCAACAGAGGAUUGAGCAUCA
B4: ENSG00000142192:stop:overlap|stop_codon|ENSG00000142192|stop_codon|NA|stop_codon (ssRNA)
RNA: GGGAGUUCUACAGUCCGACGAUCAGAUGCAGCAGAACGGCUACGAAAAUCCAACCUACAAGUUCUUUGAGCAGAUGCAGAACUAGACCCCCGCCACAGCAGCCUCUGAAGUUGGACAGCAAAACCAUUGCUUCACUACCCAUCCAACAGAGGAUUGAGCAUCA
B5: ENSG00000198589:be:win_3901|CDS|ENSG00000198589|bound_else_gene|NA|bound_elsewhere_windowed (ssRNA)
RNA: GGGAGUUCUACAGUCCGACGAUCUCUACUGUGUUUCGUAUUCCUGAGUUCAACUGGUCUCAGAUGCAUCAACGUUUGCUCACUGAUCUAUUAUUUUCAAUAGAAACAGAUAUACAGAUGUGGAGAAGCCAUUCAACAAAGACACAACAGAGGAUUGAGCAUCA
B6: ENSG00000179431:stop:overlap|stop_codon|ENSG00000179431|stop_codon|NA|stop_codon (ssRNA)
RNA: GGGAGUUCUACAGUCCGACGAUCACUUCCUCGCCAAGCACAUUUUGCACUGUAAGGCCAAGUACGGCCGCCGGUCUGGGACUUAGUGUCACCGGGAGGAAAAGAGAGAGAUCUGGGGCUGGGGUAUGGAUGAUGGGGGGAAGGCAACAGAGGAUUGAGCAUCA
B7: chr18:58535911:58536012:-|CDS|ENSG00000198796|msi1|total|mutant (ssRNA)
RNA: GGGAGUUCUACAGUCCGACGAUCUCUGACCUGCCCUAAAAUCCCCGAGUCCUCUGCCGAUCCCAUUGAUGAGAUAAGUGUGACCGAGUACACCAGGGCUGGAAAACCAGAGCCCUCUGAAACCACACCACAGGGCGCCAGAGACAACAGAGGAUUGAGCAUCA
B8: chr7:116918052:116918157:+|3pUTR|ENSG00000198898|unk|total|mutant (ssRNA)
RNA: GGGAGUUCUACAGUCCGACGAUCUUUUCAUUUUGUUUGUUCUAAGAGGAUUGAAAAUCAGUUCCGUUUAAAUGUCUUUCUGUCCGGCCUUUCUUUCUUACAAUGAAGAGAUGAUUCUUCCCGUUUAUGGUUAAAAGUUUUUGACAACAGAGGAUUGAGCAUCA
B9: chr1:109011400:109011505:-|CDS|ENSG00000085433|unk|total|mutant (ssRNA)
RNA: GGGAGUUCUACAGUCCGACGAUCGUCAUGGUUGCAGAAUUCAUCCCUGCUGACCGGAAGCUAAGUGAAGCUGGUUUUAAGGCCCGUAACAAUCGUUUAUUUCAGCUUGUAAUGAAAGGCCUGCUUUAUGAAUGCUGUGCCGAACAACAGAGGAUUGAGCAUCA
B10: ENSG00000198589:be:win_2751|CDS|ENSG00000198589|bound_else_gene|NA|bound_elsewhere_windowed (ssRNA)
RNA: GGGAGUUCUACAGUCCGACGAUCAAUCACUCAUUCAAAGGUCACUUUUGAAAUACACAAAGAAAACCUUGCCAAUAUAUUUAGGGAACAGCAAGGAAAAGUUGAUGAAGAAAUAGGGCUGUGUUCUUCAACUUCAGUUCAAGCCAACAGAGGAUUGAGCAUCA
B11: ENSG00000198589:be:win_9151|3pUTR|ENSG00000198589|bound_else_gene|NA|bound_elsewhere_windowed (ssRNA)
RNA: GGGAGUUCUACAGUCCGACGAUCAUUGUGUGGUUAGCACAAGGAAUCUAAUUUAUAGCAAGUGUGAAAUAGUUACCAUUUUUUCCUGAUCUGUCAUCUUCAUAGCACAACAAAACGAAAUGAUGGAAAUGCUCUUGAGCUCACCAACAGAGGAUUGAGCAUCA
B12: chr2:216675367:216675485:-|3pUTR|ENSG00000115461|msi1|FALSE|unique (ssRNA)
RNA: GGGAGUUCUACAGUCCGACGAUCGCCAGGCAGAGGCCAGCCCUCCGUGGUGCACACAGCACGCGCCUCAGUCCAUCCCAUUUUAGUCUUUAAACCCUCAGGAAGUCACAGUCUCCGGACACCACACCACAUGAGCCCAACAGGCAACAGAGGAUUGAGCAUCA
B13: chr2:96252317:96252350:-|3pUTR|ENSG00000135956|msi1_unk|FALSE|overlapping (ssRNA)
RNA: GGGAGUUCUACAGUCCGACGAUCGUGUCCCCUGCUGAGCUGAAAAGGAAAUGGAUUCCAAUCUCUUCCAACCUUUAAGGUGAUAGAUAGUUUGAGCAAGACUGGAGAAUGGACAACACUAUGAAGCUGUGGCUAGAAAGGGACCAACAGAGGAUUGAGCAUCA
B14: chr1:6224442:6224573:-|3pUTR|ENSG00000116237|msi1_unk|total|mutant (ssRNA)
RNA: GGGAGUUCUACAGUCCGACGAUCCUAUACAAUUUUAAAAAUACUUCCUCACCGGAUGCUUUGGCCCUUCAUCUAUUUAAUCACCGCUACAUACCUAUUUUUUAUAAGCCGCAGUACACAUUCAAAGGGGUAUUCCCCGCUCAACAACAGAGGAUUGAGCAUCA
B15: chr4:78448087:78448188:+|CDS|ENSG00000138759|msi1|total|mutant (ssRNA)
RNA: GGGAGUUCUACAGUCCGACGAUCGCCUCUGGAGAAUGGGAGAGUUUCCGUCCAGGGCUCAACCUUCACCUACCAGGAUAUCCCCGCUGGGCUGGUUGGGUAUGUGCCCCGUGUCCCUGGCAUGGUCGUGGAUGAGUUCCAGUUCAACAGAGGAUUGAGCAUCA
B16: chr12:30629720:30629821:-|3pUTR|ENSG00000133704|msi1|total|mutant (ssRNA)
RNA: GGGAGUUCUACAGUCCGACGAUCCUUCUUGCUUUCUCACCUAUUUGAAUUUUCUCCUACCUAAUUUGUUUGUGUCUUUAUUACCGCUCAGUUUGACUUCUCAAACUUUUCAAGGGUUGGGGCAGCUGCACUUUCCGGUUGCCUCAACAGAGGAUUGAGCAUCA
B17: chr1:17407970:17408071:-|3pUTR|ENSG00000179051|msi1|FALSE|unique (ssRNA)
RNA: GGGAGUUCUACAGUCCGACGAUCGGGUACCGUUCUGCUGACCCAGCUCCCUUUAGUCACGUUUGCUUGGCUCUGGUACCAAAUAGUUGGGAUUACCGAAGAGUCCCCUUCCUUGCGUGUCAGCACGGAUGCUGUGACUGCCACCAACAGAGGAUUGAGCAUCA
B18: chr15:63775065:63775180:-|CDS|ENSG00000103657|unk|FALSE|unique (ssRNA)
RNA: GGGAGUUCUACAGUCCGACGAUCUGGUUCAGCAGAUGUCCAUUCUGUUAGUGAACGCCCCCGGUCAAGCACUGAUGCACUUAUAGAAAUGGGUGUUCGAACUGGUCUAAGUUUAUUAUUUGCGCUUCUAAGACAAAGUUGGAUCAACAGAGGAUUGAGCAUCA
B19: chr1:203741760:203741861:+|3pUTR|ENSG00000058668|msi1|total|mutant (ssRNA)
RNA: GGGAGUUCUACAGUCCGACGAUCAUUUUGGUUUUGUAAAACGUACAUGCUUCAAUAAUUCUUUUUUGUGUCUUAAAUACUCACCGGGGAAAAAAACAGCUCACCCAAGGUGUCCGGUUUCACAUAUAUAUUCAUCAACUAUUUCAACAGAGGAUUGAGCAUCA
B20: chr14:74902662:74902763:+|3pUTR|ENSG00000119689|msi1|total|mutant (ssRNA)
RNA: GGGAGUUCUACAGUCCGACGAUCCCCCUGGGGACCAUGUGAUUAAGUUCCUAUCUUUUGAAAGUUUGUUCUGCAGAGACUUCCCGGAGGAUGCUGUGCCUCCCAAGCUCAGAGCAGCCUCUGUCCUGGCUGUGCACAUUCUCCCAACAGAGGAUUGAGCAUCA
B21: chr12:109554177:109554278:-|3pUTR|ENSG00000139428|unk|total|mutant (ssRNA)
RNA: GGGAGUUCUACAGUCCGACGAUCUUGCUAUGUGCAGUGCCCUGAGCCAAGUGUUCCACAGACAUUAUCUCAUUUGAACCCCACCGCAGCCCUGGAAGGAGGCAUUGGGUGGGGAACCAAGUUGUCCUGGGGAGUCAGUGCCAACAACAGAGGAUUGAGCAUCA
B22: chr11:59152587:59152688:+|CDS|ENSG00000166801|msi1|FALSE|unique (ssRNA)
RNA: GGGAGUUCUACAGUCCGACGAUCAUUGAAAACUUCAAGAAAAAAAUGAAAGUAAAAAAUGGGGAAACAUUAUUUGAAUUGCAUAGAACAACGUUUGGGAAAGUAACAAAAAAUUCUUCUUCGAUUAAAGUAGUGAAACUUCUUCAACAGAGGAUUGAGCAUCA

The binders below were run against MSI1 full-length (mouse, UniProt Q61474 1-362) (assay: nsRBNS (natural sequence RNA bind-n-seq); RBNS binding buffer (assumed for nsRBNS): 25 mM Tris pH 7.5, 150 mM KCl, 3 mM MgCl2, 0.01% Triton X-100, 500 ug/ml BSA, 20 U/ml SUPERase-In, 4 C; UNK is unkempt and MSI1 is Musashi-1; names of the RNAs are library labels; protein concentration not given here; high values mean tight binding).
UniProt Q61474, sequence (Q61474 whole entry): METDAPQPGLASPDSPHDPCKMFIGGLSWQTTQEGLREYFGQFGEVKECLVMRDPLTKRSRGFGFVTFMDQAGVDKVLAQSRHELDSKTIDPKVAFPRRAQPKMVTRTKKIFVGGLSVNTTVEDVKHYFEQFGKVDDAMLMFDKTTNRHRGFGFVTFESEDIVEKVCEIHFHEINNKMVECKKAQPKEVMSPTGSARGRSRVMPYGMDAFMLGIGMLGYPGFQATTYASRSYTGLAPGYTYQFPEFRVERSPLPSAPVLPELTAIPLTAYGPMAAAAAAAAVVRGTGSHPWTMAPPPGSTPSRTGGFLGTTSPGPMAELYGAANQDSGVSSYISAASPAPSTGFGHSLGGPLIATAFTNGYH

| Binder | binding signal [enrichment R] |
| --- | --- |
| B1 | 0.952 |
| B2 | 8.34 |
| B3 | 0.354 |
| B4 | 0.438 |
| B5 | 0.241 |
| B6 | 0.478 |
| B7 | 0.486 |
| B8 | 0.584 |
| B9 | 0.641 |
| B10 | 1.26 |
| B11 | 33.5 |
| B12 | 1.36 |
| B13 | 1.95 |
| B14 | 18.3 |
| B15 | 0.461 |
| B16 | 0.628 |
| B17 | 0.973 |
| B18 | 0.851 |
| B19 | 0.777 |
| B20 | 0.344 |
| B21 | 0.414 |
| B22 | 0.574 |
